{"source": "PubChem BioAssay AID686978", "about": "(National Center for Advancing Translational Sciences (NCATS), 2013)", "note": "Hit rate of the full screen: of about 420,000 compounds, about 64,000 (15%) were called active. The shares of active, inactive and inconclusive entries below differ from those in the screen. The call rests on the fitted dose curve; in most records, active means well fitted inhibition curve with a large enough effect; inconclusive means small, poorly fitted or top-dose-only effect; inactive means flat fitted curve, though single readings scatter. Potencies of inconclusive entries are left out as doubtful fits. On the % scale 0 is the no-effect control and ±100 the full control effect; potency means the concentration at half of the fitted maximal effect; tags describe the fitted curve by direction and shape.", "data": [{"experiment": "qHTS for Inhibitors of human tyrosyl-DNA phosphodiesterase 1 (TDP1): qHTS in cells in absence of CPT; further: nearly all actives have a fitted effect of over 55% in size", "conditions": "DT40 Tdp1-/- hTDP1 cells, no CPT, ATP luminescence, 48 h; activity change, negative = growth inhibition: at 46.2 µM (top of the series) unless noted", "how_it_was_run": "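Cells were dispensed at 400 per well, compounds added by pin tool, plates incubated ≥48 hr at 37 °C, then CellTiter-Glo added for 30 min at room temperature before luminescence reading. Line: DT40 Tdp1-/- complemented with hTDP1; camptothecin omitted.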", "values": [{"smiles": "CCCC(=O)Nc1cc(C(=O)NCc2ccc(OC)cc2)ccc1S(=O)(=O)c1ccc(Cl)cc1", "Potency": "inconclusive [inhibitor, single point]"}, {"smiles": "Nn1cnnc1N/N=C/c1cccc(Cl)c1Cl", "Potency": "inactive"}, {"smiles": "Cc1nn(CC(=O)NCc2ccccc2Cl)c(=O)c2cccn12", "Potency": "inactive"}, {"smiles": "CC1(C(=O)N2Cc3ccccc3C2)CCN1C(=O)Cc1ccccc1", "note": "(configuration not stated)", "Potency": "inconclusive [inhibitor, partial curve]"}, {"smiles": "COc1ccccc1-n1nnnc1SCC(=O)NC(=O)Cc1ccccc1", "Potency": "inactive"}, {"smiles": "Cc1ccc(-c2nnc(OCCN3CCOCC3)c3ccccc23)cc1", "Potency": "inconclusive [inhibitor, single point]"}, {"smiles": "O=CN1CCN(C(=O)c2ccc(-c3nc4ccccc4s3)s2)CC1", "Potency": "inconclusive [inhibitor, single point]"}, {"smiles": "CCOC(=O)C1CCN(C(=O)C2CCN(c3nnc(C)c4c(C)n(-c5ccccc5)nc34)CC2)CC1", "Potency": "inconclusive [inhibitor, single point]"}, {"smiles": "O=C(OC(c1ccccc1)c1nccc2ccccc12)c1cc([N+](=O)[O-])cc([N+](=O)[O-])c1", "note": "(configuration not stated)", "Potency": "active: 20.6 µM"}, {"smiles": "CCOc1ccc(NC(=S)NCCN2CCN(Cc3ccccc3)CC2)cc1", "Potency": "inconclusive [inhibitor, full curve, poor fit]"}, {"smiles": "COc1ccc(-c2cc(OC(=O)c3ccc(F)cc3)c3c(C)oc(C)c3c(=O)c2)cc1OC", "Potency": "inconclusive [inhibitor, single point]"}, {"smiles": "CCOc1cc(C2NC(=O)N(C)C(C)=C2C(=O)OC)cc(Br)c1O", "note": "(configuration not stated)", "Potency": "inactive"}, {"smiles": "Cc1cc(S(=O)(=O)/N=C(\\N)c2ccc(C(N)=O)cc2)cc(C)c1F", "Potency": "inactive"}, {"smiles": "O=C(CNC(=O)c1cccs1)OCc1c(F)cccc1Cl", "Potency": "inactive"}, {"smiles": "CC(=O)Nc1ccc(NC(=O)CCn2nnc3ccccc32)cc1", "Potency": "active: 23.1 µM"}, {"smiles": "COC(=O)c1ccc(NC(=O)c2cc(-c3ccncc3)nc3ccccc23)cc1", "Potency": "inconclusive [inhibitor, single point]"}, {"smiles": "Cc1ccc([N+](=O)[O-])cc1-c1ccc(/C=C(\\C#N)c2[nH]nc(N)c2C#N)o1", "Potency": "active: 13 µM"}, {"smiles": "COc1ccc(CN2C[C@H](Sc3nc4ccccc4[nH]3)C[C@H]2C(=O)N2CCCN(C)CC2)cc1C", "Potency": "inactive"}, {"smiles": "CC(C)CCn1c(CN(C)Cc2ccccc2)nc2c1c(=O)n(C)c(=O)n2C", "Potency": "active: 6.51 µM"}, {"smiles": "O=C(Nc1ccc(-c2nc3ccccc3[nH]2)cc1)C1CCCO1", "note": "(configuration not stated)", "Potency": "active: 14.6 µM"}, {"smiles": "COc1ccc(NC(=O)C2CCCN(S(=O)(=O)c3c(C)n[nH]c3C)C2)cc1OC", "note": "(configuration not stated)", "Potency": "inconclusive [inhibitor, single point]"}, {"smiles": "O=C(CCCOc1ccc(Cl)cc1Cl)NCCCO", "Potency": "inactive"}, {"smiles": "Cc1ccc(Cc2c(C)nn(-c3nc(C)c(C(=O)N4CCCCC4C)s3)c2C)cc1", "note": "(configuration not stated)", "Potency": "active: 14.6 µM"}, {"smiles": "COc1ccc(-c2noc(CSc3nnc(-c4ccccc4)n3-c3ccc(F)cc3)n2)c(OC)c1", "Potency": "active: 20.6 µM"}, {"smiles": "Cc1ccccc1C(=O)N1CCc2cc(-c3csc(NC(=O)CN4CCCC4)n3)ccc21", "Potency": "inconclusive [inhibitor, single point]"}, {"smiles": "COc1ccc(CNC(=O)CCn2cccc2)cc1", "activity change, negative = growth inhibition": "inconclusive: -37.5% [inhibitor]"}, {"smiles": "CCc1nn(CC(=O)NCc2ccc(OC)cc2OC)c(=O)c2cc3c(OC)cccc3n12", "Potency": "inactive"}, {"smiles": "COC(=O)C1CCN(C(=O)c2ccc3oc(Cc4ccc(Cl)cc4)nc3c2)CC1", "Potency": "inconclusive [inhibitor, partial curve, poor fit]"}, {"smiles": "Cc1cccc(NC(=O)CN2c3ccccc3S(=O)(=O)c3ccccc32)c1C", "Potency": "inconclusive [inhibitor, single point]"}, {"smiles": "O=C(Cc1cccc(NC(=O)C2CCN(C(=O)C3CCC3)CC2)c1)Nc1cccc(C(=O)N2CCOCC2)c1", "Potency": "inactive"}, {"smiles": "Cc1ccc(Cl)cc1OCC(=O)NCCOC(=O)Nc1sc(=S)n(C)c1C", "Potency": "inconclusive [inhibitor, single point]"}, {"smiles": "C[C@@H]1ON(C)[C@H]2C[C@H]3c4cc(-c5cccc(F)c5)ccc4CCN3C(=O)[C@@H]12", "Potency": "inconclusive [inhibitor, single point]"}, {"smiles": "c1ccc(-c2oc3ncnc(NCCN4CCOCC4)c3c2-c2ccccc2)cc1", "Potency": "inconclusive [inhibitor, partial curve]"}, {"smiles": "CCCCc1cc(=O)oc2cc(C)cc(OCc3nn[nH]n3)c12", "Potency": "inactive"}, {"smiles": "Cc1ccc(Oc2ncccc2/C=N/OCc2ccc(Cl)cc2Cl)cc1", "Potency": "inactive"}, {"smiles": "Cc1cc(OCCn2ccnc2)cc(C(C)C)c1", "Potency": "inactive"}, {"smiles": "COc1ccc(NC(=O)C2(c3ccccc3)CCCC2)cc1", "Potency": "inconclusive [inhibitor, single point]"}, {"smiles": "Cc1cccc(NC(=O)Cn2cc(C=O)c3ccccc32)c1", "Potency": "inconclusive [inhibitor, partial curve]"}, {"smiles": "c1ccc2[nH]c(SCc3ccc(-c4nnco4)cc3)nc2c1", "Potency": "inconclusive [inhibitor, single point]"}, {"smiles": "COc1cc(C)ccc1S(=O)(=O)n1nc(C)cc1C", "Potency": "inactive"}, {"smiles": "C=C1CCC[C@]2(C)C[C@H]3OC(=O)[C@H](CNCCc4ccccc4OC)C3CC12", "note": "(some centres not stated)", "Potency": "inconclusive [inhibitor, single point]"}, {"smiles": "O=C(C1CC1)N1CCc2cc(S(=O)(=O)NCc3ccccc3)ccc21", "Potency": "inconclusive [inhibitor, partial curve, poor fit]"}, {"smiles": "CCn1c(=O)n(CC(=O)Nc2ccc(F)cc2)c(=O)c2ccccc21", "activity change, negative = growth inhibition": "inconclusive: -37.1% [inhibitor]"}, {"smiles": "CCOc1ccccc1NC(=O)C1COc2ccccc2O1", "note": "(configuration not stated)", "Potency": "inconclusive [inhibitor, single point]"}, {"smiles": "CSc1nc2ccccc2n1CC(=O)Nc1ccccc1", "Potency": "active: 18.4 µM"}, {"smiles": "O=[N+]([O-])c1ccccc1C(O)Cc1ccccn1", "note": "(configuration not stated)", "Potency": "inactive"}, {"smiles": "Cc1nn(-c2ccccc2)c(Cl)c1C1C(C#N)=C(N)OC2=C1C(=O)CC(C)(C)C2", "note": "(configuration not stated)", "Potency": "inconclusive [inhibitor, single point]"}]}]}
